# Test results as given in paper PMC4336329 (PLoS ONE, 2015).
# Out of some 310,000 compounds screened, about 14,000 (4.5%) showed an effect of 50% or more. Effects have a minus sign here. Some of the results follow.
# Target: human ether-à-go-go-related gene (hERG) potassium channel (human, UniProt Q12809)
# Test: primary screen, population patch clamp on CHO cells stably expressing hERG
# 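Further: peak tail current of the secondary pulse compared with the same well before compound.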
# human ether-à-go-go-related gene (hERG) potassium channel, sequence (Q12809 whole entry, looked up): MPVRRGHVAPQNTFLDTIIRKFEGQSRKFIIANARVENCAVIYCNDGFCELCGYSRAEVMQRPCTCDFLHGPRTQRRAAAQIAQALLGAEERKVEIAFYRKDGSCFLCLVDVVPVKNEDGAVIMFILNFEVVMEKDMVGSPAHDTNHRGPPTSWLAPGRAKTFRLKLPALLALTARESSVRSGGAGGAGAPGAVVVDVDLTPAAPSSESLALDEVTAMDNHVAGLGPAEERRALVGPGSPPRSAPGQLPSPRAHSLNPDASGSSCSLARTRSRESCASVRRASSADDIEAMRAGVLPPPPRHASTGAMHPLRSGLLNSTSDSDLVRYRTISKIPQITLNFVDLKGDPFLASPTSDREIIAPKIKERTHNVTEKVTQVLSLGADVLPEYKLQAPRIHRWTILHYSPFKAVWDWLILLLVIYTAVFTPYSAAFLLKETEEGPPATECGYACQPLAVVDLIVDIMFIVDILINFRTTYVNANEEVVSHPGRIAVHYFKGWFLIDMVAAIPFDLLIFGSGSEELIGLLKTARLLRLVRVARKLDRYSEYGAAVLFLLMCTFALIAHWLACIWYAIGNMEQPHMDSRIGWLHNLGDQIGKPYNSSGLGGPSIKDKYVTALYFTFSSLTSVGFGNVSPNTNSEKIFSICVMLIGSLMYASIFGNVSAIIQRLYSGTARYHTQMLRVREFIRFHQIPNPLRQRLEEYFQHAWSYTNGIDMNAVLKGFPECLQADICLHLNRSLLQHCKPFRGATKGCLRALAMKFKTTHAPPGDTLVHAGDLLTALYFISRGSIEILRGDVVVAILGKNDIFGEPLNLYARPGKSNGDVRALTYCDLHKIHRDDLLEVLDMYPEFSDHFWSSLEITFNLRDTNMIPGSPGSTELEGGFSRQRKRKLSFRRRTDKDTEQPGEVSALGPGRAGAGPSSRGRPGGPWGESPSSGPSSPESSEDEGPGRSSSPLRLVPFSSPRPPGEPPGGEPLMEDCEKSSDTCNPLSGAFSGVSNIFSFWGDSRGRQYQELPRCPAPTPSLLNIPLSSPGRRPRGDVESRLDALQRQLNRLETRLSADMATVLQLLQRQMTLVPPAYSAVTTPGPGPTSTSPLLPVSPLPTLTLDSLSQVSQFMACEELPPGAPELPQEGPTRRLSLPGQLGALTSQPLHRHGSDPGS
row,SMILES,"hERG current change (%, negative = inhibition) at 10uM [%]"
1,CCn1c(=O)n(CC)c2cc(N3CCCC3)c(NC(=O)c3ccc(OC)c(Br)c3)cc21,1.73
2,CCCN(C(=O)c1ccc([N+](=O)[O-])c(C)c1)c1c(N)n(Cc2ccccc2)c(=O)[nH]c1=O,-0.221
3,O=C(COC(=O)c1ccc(O)cc1)NCc1ccc2c(c1)OCO2,-6.6
4,O=C(Oc1ccccc1)N1CCOCC1,18
5,CCCn1c(=O)c2ccccc2n2c(SCc3nc4ccccc4s3)nnc12,-9.05
6,CCCCn1c(N)c(N(CC)C(=O)C2CCCC2)c(=O)[nH]c1=O,8.11
7,CCCCN1C(N)=NC[C@@H]1c1ccccc1,-2.61
8,COc1ccccc1C(=O)Nc1cc(Cl)ccc1-n1cncn1,0.114
9,O=S(=O)(c1cccc2nsnc12)N1CCCCC1,-4.94
10,CCCNC(=O)C(Cc1ccccc1)NC(=O)Cc1ccccc1 (centres unmarked),10
11,O=C1C=C(c2cc(F)ccc2F)C[C@@H](c2ccc(Cl)cc2)C1,12.2
12,Cc1ccc2cc(CCNS(=O)(=O)c3ccc(Br)cc3)c(=O)[nH]c2c1C,-9.41
13,Cc1ccc(Cn2ncc3c(N4CCN(Cc5ccc(Cl)cc5)CC4)ncnc32)cc1,-5.3
14,CCOC(=O)N1CCN(c2ncnc3c2oc2nc(C(C)C)c4c(c23)CCC4)CC1,-7.31
15,CC(C)Cc1cc(C(=O)N2CCCC(CCC(=O)N(C)CCc3ccccn3)C2)no1 (centres unmarked),-5.77
16,O=C(O)CCN1C(=O)c2ccc(Oc3ccc([N+](=O)[O-])cc3)cc2C1=O,4.85
17,O=C(O)C1CCC(=O)N1C(=O)OCc1ccccc1 (centres unmarked),17.4
18,Cc1cccc(NC(=O)CN(c2ccc(F)cc2)S(C)(=O)=O)c1,13.2
19,CCN(CC(=O)Nc1cc(C)on1)CC(=O)Nc1ccccc1C(F)(F)F,13.7
20,O=C(CN1C(=O)CSc2ccc(S(=O)(=O)N3CCOCC3)cc21)NCCCN1CCc2ccccc2C1,-66.3
21,O=C(Cc1ccc(-c2ccccc2)cc1)NC1CCCC1,23.3
22,CCN(c1ccc(NC(=O)COC(=O)/C=C/c2cccs2)cc1)C(C)C,11.7

row,SMILES,"hERG current change (%, negative = inhibition) at 10uM [%]"
1,CC(C)c1nc2oc3c(NCC4CCCO4)ncnc3c2c2c1CCC2 (centres unmarked),-27.4
2,CSc1ccc(CN2CCC(CO)(CCOc3ccccc3)CC2)cc1,-78.4
3,O=C(NC1C/C(=N/O)c2cc3c(cc21)OCO3)C(F)(F)F (centres unmarked),21.5
4,O=C1CCCC2=C1C(c1ccc(O)c(Br)c1)C1=C(CCCC1=O)N2c1ccccc1,-33
5,COc1ccccc1CC(=O)Nc1ccc(S(=O)(=O)N(C)C2CCN(C)CC2)cc1,-6.79
6,COc1ccc(N2CCN(C(=O)CN(c3cccc(Br)c3)S(C)(=O)=O)CC2)cc1,-18.7
7,O=C(CNC(=O)Cc1ccccc1)NCC(=O)N1CCN(C(c2ccccc2)c2ccccc2)CC1,13.1
8,Cc1ccc(-c2nnc(N3CCCCCC3)c3ccccc23)cc1,1
9,Cc1ccc(OCc2nc(C#N)c(NCc3ccco3)o2)cc1,-24.4
10,COc1ccc(/C=C/C(=O)NCCCn2ccnc2)cc1,-30.9
11,O=C(NC1CCCCCCC1)C1CCN(c2nc3ccccc3o2)CC1,-17.1
12,Cl.Nc1nc(-c2ccc3c(c2)OCCO3)cs1,19.4
13,Cc1ccc(S(=O)(=O)N/N=C\c2cn(-c3ccccc3)nc2-c2ccccc2)cc1,4.8
14,O=C(COC(=O)CSc1ccc(F)cc1)NCC1CCCCC1,6
15,COC(=O)c1ccc(NC(=O)CN(c2ccc(C)cc2)S(=O)(=O)c2c(C)n[nH]c2C)cc1,8.69
16,COc1ccc(N(CC(=O)N2CCN(c3cc(C)ccc3C)CC2)S(=O)(=O)c2c(C)noc2C)cc1,15.9
17,Br.CCOc1ccc2c(c1)nc(SCC(=O)c1ccc(Br)s1)n2C,19.6
18,CCCN(C(=O)c1ccc(N(C)S(=O)(=O)c2ccc(C)cc2)cc1)C1CCS(=O)(=O)C1 (centres unmarked),-20.8
19,CCOc1ccccc1CNC(=O)CNC(=O)c1cccs1,6.43
20,CCN1C(=O)C(CC(=O)NCc2ccc(Cl)cc2)N(CC)C1=O (centres unmarked),-3.61
21,Cc1ccc(-n2nnnc2SCC(=O)c2ccc3c(c2)NC(=O)CO3)c(C)c1,8.2
22,CCOc1ccc(C2NC(=O)c3ccccc3O2)cc1 (centres unmarked),5.34
